Data published in a collection of fitness landscapes (doi:10.1126/science.1257360).
This is one part of the list.

B1: PhoQ; a variant is named by its letters at X, in order, P23837 (parent)
chain: MKKLLRLFFPLSLRVRFLLATAAVVLVLSLAYGMVALIGYSVSFDKTTFRLLRGESNLFYTLAKWENNKLHVELPENIDKQSPTMTLIYDENGQLLWAQRDVPWLMKMIQPDWLKSNGFHEIEADVNDTSLLLSGDHSIQQQLQEVREDDDDAEMTHSVAVNVYPATSRMPKLTIVVVDTIPVELKSSYMVWSWFIYVLSANLLLVIPLLWVAAWWSLRPIEALAKEVRELEEHNRELLNPATTRELTSLVRNLNRLLKSERERYDKYRTTLTDLTHSLKTPLXXLQXXLRSLRSEKMSVSDAEPVMLEQISRISQQIGYYLHRASMRGGTLLSRELHPVAPLLDNLTSALNKVYQRKGVNISLDISPEISFVGEQNDFVEVMGNVLDNACKYCLEFVEISARQTDEHLYIVVEDDGPGIPLSKREVIFDRGQRVDTLRPGQGVGLAVAREITEQYEGKIVAGESMLGGARMEVIFGRQHSAPKDE

Variants of: B1
Assay: enrichment ratio after two sorts for PhoP signalling (ratio (wild type AVST 3.29)); higher = more functional
Conditions: with PhoP (E. coli)

Row | Variant | enrichment ratio
1 | YSYN | ≤ 0.25
2 | SFYL | ≤ 0.25
3 | VQHD | ≤ 0.25
4 | WSME | ≤ 0.25
5 | GAQW | ≤ 0.25
6 | MPHK | ≤ 0.25
7 | VIPI | ≤ 0.25
8 | DYGS | ≤ 0.25
9 | RWNI | ≤ 0.25
10 | IYAC | ≤ 0.25
11 | EQGW | ≤ 0.25
12 | ELSK | ≤ 0.25
13 | EMCR | ≤ 0.25
14 | VSIY | ≤ 0.25
15 | NTST | ≤ 0.25
16 | YILA | 0.425
17 | LLNE | ≤ 0.25
18 | RAAF | ≤ 0.25
19 | YEVF | ≤ 0.25
20 | FWHT | ≤ 0.25
21 | QKLE | ≤ 0.25

Row | Variant | enrichment ratio
22 | RMET | ≤ 0.25
23 | LTMW | ≤ 0.25
24 | VQMD | ≤ 0.25
25 | LYYV | ≤ 0.25
26 | FENF | ≤ 0.25
27 | THCH | 5.09
28 | NSWA | ≤ 0.25
29 | TTYD | ≤ 0.25
30 | SQQP | ≤ 0.25
31 | IGMW | ≤ 0.25
32 | FAQV | ≤ 0.25
33 | AFDN | ≤ 0.25
34 | AMKE | ≤ 0.25
35 | RFRW | ≤ 0.25
36 | WTAI | ≤ 0.25
37 | KFIP | ≤ 0.25
38 | HLTK | ≤ 0.25
39 | YTCN | ≤ 0.25
40 | VWYY | ≤ 0.25
41 | TLTP | ≤ 0.25
42 | NSTN | ≤ 0.25

Row | Variant | enrichment ratio
43 | WRAI | ≤ 0.25
44 | YCLK | 1.72
45 | LAKW | ≤ 0.25
46 | HQAF | ≤ 0.25
47 | PMDH | ≤ 0.25
48 | RIEM | ≤ 0.25
49 | TCQG | 3.14
50 | KREY | ≤ 0.25
51 | IKAF | ≤ 0.25
52 | PIRL | ≤ 0.25
53 | YVLA | 0.29
54 | ALSH | 2.51
55 | YRFL | ≤ 0.25
56 | GLTY | 0.468
57 | GSYI | ≤ 0.25
58 | GEFA | ≤ 0.25
59 | GWLW | ≤ 0.25
60 | IECV | ≤ 0.25
61 | EHFC | ≤ 0.25
62 | MCPT | ≤ 0.25
63 | HFGC | ≤ 0.25

Row | Variant | enrichment ratio
64 | MDVC | ≤ 0.25
65 | INSW | ≤ 0.25
66 | RPCN | ≤ 0.25
67 | EMDI | ≤ 0.25
68 | EEFP | ≤ 0.25
69 | NLGM | ≤ 0.25
70 | NFIH | ≤ 0.25
71 | FDVI | ≤ 0.25
72 | TFPV | ≤ 0.25
73 | PIDF | ≤ 0.25
74 | VLFG | ≤ 0.25
75 | KNTK | ≤ 0.25
76 | NWVD | ≤ 0.25
77 | SCRC | ≤ 0.25
78 | TSWT | 13.4
79 | GSGE | ≤ 0.25
80 | TTKF | ≤ 0.25
81 | SGCF | 7.09
82 | FTDS | ≤ 0.25
83 | IGQN | ≤ 0.25
84 | DCDW | ≤ 0.25
